# Experimental data as given in article PMC4336329 (PLoS ONE, 2015).
# Out of some 310,000 compounds screened, about 2,200 (0.71%) showed an effect of 50% or more. Effects have a minus sign here. Some of the results follow.
# Target: human ether-à-go-go-related gene (hERG) potassium channel (human, UniProt Q12809)
# Assay: primary screen, population patch clamp on CHO cells stably expressing hERG
# human ether-à-go-go-related gene (hERG) potassium channel, sequence (Q12809 whole entry, looked up): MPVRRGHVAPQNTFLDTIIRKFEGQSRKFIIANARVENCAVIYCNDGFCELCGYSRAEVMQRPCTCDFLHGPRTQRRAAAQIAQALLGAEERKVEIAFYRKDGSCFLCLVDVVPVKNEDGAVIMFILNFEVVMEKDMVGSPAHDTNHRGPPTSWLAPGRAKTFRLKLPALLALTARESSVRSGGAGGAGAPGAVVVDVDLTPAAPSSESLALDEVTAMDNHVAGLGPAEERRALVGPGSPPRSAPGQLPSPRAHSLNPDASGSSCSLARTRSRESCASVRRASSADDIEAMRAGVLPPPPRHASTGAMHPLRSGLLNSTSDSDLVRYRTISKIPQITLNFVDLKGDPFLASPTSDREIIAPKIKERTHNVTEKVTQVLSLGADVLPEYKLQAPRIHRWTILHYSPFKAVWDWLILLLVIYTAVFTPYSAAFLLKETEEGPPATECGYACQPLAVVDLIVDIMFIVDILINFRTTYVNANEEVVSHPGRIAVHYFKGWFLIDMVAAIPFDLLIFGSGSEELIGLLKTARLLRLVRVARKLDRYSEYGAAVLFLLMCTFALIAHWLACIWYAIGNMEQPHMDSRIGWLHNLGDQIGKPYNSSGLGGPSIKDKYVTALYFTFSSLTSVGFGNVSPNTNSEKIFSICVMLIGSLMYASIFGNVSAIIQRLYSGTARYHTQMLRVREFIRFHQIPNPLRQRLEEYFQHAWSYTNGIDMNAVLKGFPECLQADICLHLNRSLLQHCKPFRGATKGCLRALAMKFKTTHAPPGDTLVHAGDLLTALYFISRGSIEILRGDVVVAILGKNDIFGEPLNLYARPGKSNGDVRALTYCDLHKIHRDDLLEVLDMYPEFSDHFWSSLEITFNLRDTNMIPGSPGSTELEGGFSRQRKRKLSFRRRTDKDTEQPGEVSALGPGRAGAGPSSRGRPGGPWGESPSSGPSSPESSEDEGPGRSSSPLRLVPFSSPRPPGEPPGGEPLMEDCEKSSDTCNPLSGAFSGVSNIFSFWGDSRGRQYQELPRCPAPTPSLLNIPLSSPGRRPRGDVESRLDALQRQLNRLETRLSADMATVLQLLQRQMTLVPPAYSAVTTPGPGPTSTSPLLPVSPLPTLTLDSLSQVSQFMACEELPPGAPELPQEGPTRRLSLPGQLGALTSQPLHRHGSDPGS
row,SMILES,"hERG current change (%, negative = inhibition) at 1uM"
1,Cc1cccc(OCCCC(=O)NNC(=O)c2ccc(F)cc2)c1,13.2%
2,COC(=O)[C@@H]1C[C@]2(OC(=O)c3ccccc3)C=CC(=O)C[C@@H]2N1C(=O)OCc1ccccc1,11.9%
3,N#CC1=C(N)Oc2cc(N)ccc2C1c1ccc(F)cc1 (stereo not drawn),7.68%
4,c1cncc(-c2nc3ccccc3o2)c1,3.36%
5,COC(=O)c1[nH]c2ccc(C)cc2c1NS(=O)(=O)c1ccc(F)c(C)c1,7.49%
6,CCOc1ccccc1-n1c(SCC(=O)NC(C)CC)nnc1-c1ccoc1C (stereo not drawn),-2.44%
7,Cc1cc(C)cc(NC(=S)NCc2cccn2C)c1,8.46%
8,C/C(=N\NC(=O)c1ccc(O)cc1)c1cccc(NC(=O)c2ccccc2C)c1,6.59%
9,O=C(Nc1nc(-c2ccc([N+](=O)[O-])cc2)cs1)c1c(F)cccc1F,10.3%
10,O=C(NCC(=O)N1CCN(C(=O)c2ccco2)CC1)c1cccc(Cl)c1,-5.44%
11,CCn1ccnc1CNC(=O)C1CCC(=O)N(Cc2ccccc2F)C1 (stereo not drawn),14.1%
12,COCCNC(=O)c1ccc(C(=O)C(=O)c2ccccc2)cc1,9.45%
13,CC(C)CC(=O)Nc1cccc(-c2nc3ccccc3o2)c1,2.35%
14,Fc1ccc(N/N=C/c2ccc(N3CCOCC3)cc2)c(F)c1,9.29%
15,Cc1ccccc1S(=O)(=O)Cc1ccc(C(=O)NC2CCCCC2)o1,11.6%
16,COc1ccc(CCNC(=O)c2ccc3ccccc3n2)cc1OC,9.06%
17,CCC(=O)c1cn(CC(=O)Nc2ccccc2F)c2ccccc12,20.3%
18,CCC1CN(C)C2Cc3c([nH]c4ccccc34)C(=O)CC1C2C(=O)OC (stereo not drawn),9.84%
19,CCOC(=O)N1CCN(CC(=O)Nc2ccccc2C(=O)Nc2ccccc2)CC1,1.36%
20,CCOCCn1ccc2c(OCC(=O)NCc3ccccc3)cccc2c1=O,-2.94%
21,O=C(c1ccc(NC2=NC3CS(=O)(=O)CC3S2)cc1)N1CCN(c2ccccc2F)CC1 (stereo not drawn),10.5%
22,CCOc1ccccc1N1CCN(S(=O)(=O)c2ccc(Cl)s2)CC1,13.3%
23,CC(=O)Nc1ccc(N2C(=O)CSC2c2cccc([N+](=O)[O-])c2)cc1 (stereo not drawn),13.1%

row,SMILES,"hERG current change (%, negative = inhibition) at 1uM"
1,COc1ccccc1C(=O)OCC(=O)NC(C)CCc1ccccc1 (stereo not drawn),9.63%
2,Cc1cccc(Oc2ncnc3onc(C)c23)c1,6.6%
3,COCCCNC(=O)CSc1ccc(Cl)cc1,2.97%
4,CN1CCN(/N=C/c2ccc(-c3ccc([N+](=O)[O-])cc3)o2)CC1,-31.3%
5,C=CCOc1c(CNc2nccs2)cccc1OCC,9.6%
6,Cc1ccc2nc(-c3ccccn3)c(Nc3ccccc3C)n2c1,-0.639%
7,Cc1c(/C(O)=C2/C(=O)C(=O)N(CCN3CCOCC3)C2c2cccnc2)cnn1-c1ccccc1 (stereo not drawn),16.9%
8,Cc1ccnc(Nc2nc(-c3ccc(O)cc3)cs2)c1,14.2%
9,CCOC(=O)c1c(-c2cccc(C)c2)csc1NC(=O)C1CC=CCC1C(=O)O (stereo not drawn),-2.92%
10,Cc1ccc(NC(=O)Cc2nnc(SCC(=O)Nc3nncs3)n2C)c(C)c1,16.2%
11,COc1ccccc1N(C)S(=O)(=O)c1ccc(C(=O)OCC(=O)NCc2cccs2)cc1,6.49%
12,COc1ccc(OC)c2nc(-c3ccc4c(c3)OCO4)ccc12,13.8%
13,CC1(C)SC(=S)N(Cc2ccc3c(c2)OCO3)C1N(O)C(=O)NC1CCCCC1 (stereo not drawn),1.64%
14,CC1CCN(C(=O)CN2C(=O)c3cccc4cccc(c34)C2=O)CC1,14.7%
15,Cc1ccc(C(=O)O/N=C\c2ccc(N3CCOCC3)c([N+](=O)[O-])c2)cc1,15.7%
16,CC12CN(C(=S)Nc3ccccc3)CC(C)(CN(C(=S)Nc3ccccc3)C1)C2=O,16.4%
17,CCC(Oc1ccccc1)C(=O)NCCOC (stereo not drawn),7.06%
18,O=c1[nH]c(CSc2nnc(Cc3ccccc3)o2)nc2ccccc12,11.7%
19,O=C(Nc1ccccc1-c1ccccc1)C1CCCN(c2ncccn2)C1 (stereo not drawn),14.4%
20,Cc1nn(C)c(C)c1S(=O)(=O)N1CCC(CO)(Cc2ccc(Cl)cc2)CC1,8.13%
21,CCOP(=O)(OCC)C(NC(=O)Nc1cccc(Cl)c1)C(N)=O (stereo not drawn),-8.73%
22,COc1cc(C(c2c(C)[nH][nH]c2=O)c2c(C)[nH][nH]c2=O)ccc1OCc1ccc([N+](=O)[O-])cc1,15.4%
23,CCCn1ncc2c(Nc3ccc(C)c(C)c3)ncnc21,6.15%

row,SMILES,"hERG current change (%, negative = inhibition) at 1uM"
1,N#C/C(C(=O)N1CCOCC1)=C1\Nc2ccccc2S1,6.67%
2,O=S(=O)(Nc1cccc2c1CCCC2)c1ccc(Cl)cc1,5.33%
3,CCOC(=O)COc1c(Cl)cc(C2NC(=S)NC(c3ccccc3)=C2C(C)=O)cc1OCC (stereo not drawn),4.09%
4,CN(Cc1cccs1)C(=O)Cn1cnc2ccccc2c1=O,5.31%
5,Nc1nonc1-c1noc(CCCN2C(=O)c3ccccc3C2=O)n1,-5.33%
6,COC(=O)c1cc(Br)c(=O)n(CCN(C(C)C)C(C)C)c1,0.568%
7,Cc1ccc(C(=O)COC(=O)C2C3C=CC(C3)C2C(=O)OCC(=O)c2ccc(C)c(C)c2)cc1C (stereo not drawn),11.2%
8,Cc1oc(=O)c(NC(=O)c2ccccc2)cc1C(N)=O,13.4%
9,CCOC(=O)C1=NNC2(CC(=O)N(c3cccc(C)c3)C2=O)C1 (stereo not drawn),11.1%
10,CCOc1ccccc1/C=N/Nc1nc2ccccc2o1,14.2%
11,CCn1c(CNC(=O)c2ccc(Cl)cc2)nnc1SCC(=O)NC1=NCCS1,9.77%
12,CC1CN(c2nc(Nc3ccccc3)nc(N)c2[N+](=O)[O-])CC(C)O1 (stereo not drawn),4.17%
13,CSc1nnc(NC(=O)CCc2ccccc2)s1,-1.05%
14,CSc1nsc(SCc2ccc(Cl)cc2)n1,12.3%
15,N#Cc1ncc(C(F)(F)F)cc1Sc1ccc(N)cc1,1.58%
16,N#CC1=C2SCN(Cc3ccco3)CN2C(=O)CC1c1cccc2ccccc12 (stereo not drawn),-2.77%
17,CS(=O)(=O)c1ccccc1C(=O)Nc1cc(Cl)ccc1-n1cncn1,11.8%
18,O=C(NN1C(=O)/C(=C/c2cccc(O)c2)SC1=S)c1ccccc1O,9.58%
19,O=C(/C=C/c1ccc([N+](=O)[O-])cc1)NCCc1ccc(F)cc1,-16.2%
20,CCn1c(CSc2nnc(-c3ccncc3)n2CCOC)nc2cc(C(=O)O)ccc21,13.8%
21,CCOC(=O)C1=C(COC(=O)Cc2ccc(Cl)cc2)NC(=O)NC1C (stereo not drawn),0.0072%
22,COc1ccccc1NS(=O)(=O)c1cc2c(cc1C)NC(=O)CO2,-0.0846%
23,Cc1ccc(NC(=O)c2ccc3ccccc3n2)cc1S(=O)(=O)N1CCOCC1,14%

row,SMILES,"hERG current change (%, negative = inhibition) at 1uM"
1,CC1CCN(C(=O)c2[nH]cnc2C(=O)N2CCN(C(=O)OC(C)(C)C)CC2)CC1,16.7%
2,C1=C(CCNc2ncnc3c2cnn3-c2ccccc2)CCCC1,9.5%
3,Cc1cc2c(cc1S(=O)(=O)N1CCCC1)n(C)c(=O)c(=O)n2C,2.73%
4,COC(=O)c1c(NC(=O)C(Cl)Cl)sc2c1C(C(=O)OC)CC2 (stereo not drawn),3.77%
5,COc1ccc(N(CC(=O)Nc2cccc(SC)c2)S(C)(=O)=O)cc1,4.61%
6,COc1ccc(C(=O)/C=C/Nc2ccc([N+](=O)[O-])cc2C)c(OC)c1,4.32%
7,COc1ccccc1CN1CCNC(=O)C1CC(=O)NCCc1cnccn1 (stereo not drawn),14%
8,Nc1nc(Cl)cc(N2CCCC2)n1,-2.19%
9,Cc1cc(NC(=O)C23CC4CC(C2)CC(n2cnc([N+](=O)[O-])n2)(C4)C3)no1,-8.98%
10,CCOP(=O)(c1ccc(N(C)C)cc1)C(O)c1ccccc1 (stereo not drawn),12.1%
11,CCOc1ccc(C(=O)Nc2ccccc2N2CCOCC2)cc1,6.46%
12,COC(=O)CCSC(=S)N1CCOCC1,7.16%
13,COCCC1CCCCN1C(=O)c1ccc(OC)c(OC2CCN(C(C)=O)CC2)c1 (stereo not drawn),9.84%
14,COc1ccc(Nc2ncc3c(n2)CC(c2ccccc2)CC3=O)cc1 (stereo not drawn),-2.12%
15,CCOc1ccc2nc(NS(=O)(=O)c3ccc4c(c3)n(C)c(=O)n4C)sc2c1,17.8%
16,CCOC(=O)C1(Cc2ccccc2)CCN(Cc2cccn2-c2nccs2)CC1,-69.8%
17,COc1ccccc1OCCNC(=O)/C=C/c1ccc([N+](=O)[O-])cc1,-9.26%
18,COC(=O)CSC1=C(C#N)C(c2sccc2C)CC(=O)N1 (stereo not drawn),6.9%
19,C=C(C)Cn1c(SCC(=O)NCc2ccco2)nc2sc3c(c2c1=O)CCC3,4.23%
20,Cc1cc(O)ccc1-c1cnc2ccccc2n1,5.99%
21,Cc1nn(C/C(C#N)=N\O)c(C)[n+]1N.[Cl-],11.8%
